The subject of this data set is ATP. Put plainly: switch fluorescence ratio, 500 uM ATP over buffer (Cy3 cluster intensity, sum of 5 cycles each) (fold (ratio)); higher = stronger signal-on switching upon ATP binding; sequences stand for … in TCGTCGGCAGCGTCAGATGTGTATAAGAGACAGTTTTTTTTTTTTTTTTTTTTTTTTT…TC. The settings on record: aptamer strand: ATP DNA aptamer (quencher-CACCTGGGGGAGTATTGCGGAGGAAGG + anchor), 100 nM annealed; ATP concentration: 500 uM; one replicate. A digest of the protocol: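 Between each of five buffer/ATP cycles, the flow-cell was stripped with NaOH and re-annealed. Each cycle imaged Cy3-labelled switching-strand clusters, annealed to 100 nM quencher-labelled ATP aptamer on a modified Illumina MiSeq flow-cell, first in selection buffer and then after 15 min with 500 uM ATP at 22 °C. The fluorescence ratio is summed target-cycle over summed buffer-cycle Cy3 intensity per cluster, averaged per switch-domain sequence, with clusters outside 100-1000 RFU excluded.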

Switch fluorescence ratio data for 67 sequences are collected here from the supplement of paper PMC10126150.

Sequences with one replicate were seen in a single cluster, so their values are uncertain.
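Further: ATP exposure 15 min at 22 °C before imaging.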

As to CACCAGTGCG, the switch fluorescence ratio is 1.21. With TAGTAATCTG the figure was 0.935; with AATCATCGAC, 1.01; with TAGTCATAAC, 0.992. With GAAACCAGAC the figure was 2.93; with ACCCGTGCAT, 1.04. With ATTTATATAC the figure was 1.04; with ATGGGATCAG, 0.983; with GATGATAATG, 0.975.

For GAAATAGGGG, the switch fluorescence ratio was determined as 0.97. With GGATCGAACT the figure was 1.01. On to ACGTGAGGGG, for which the switch fluorescence ratio stood at 1.06. Take GGCACAAGC: the switch fluorescence ratio came out at 1.04.

Consider CATGCACCCT, for which the switch fluorescence ratio is 1.08. With ATTCCTGCTA the figure was 1.09; with CCAGTACGGA, 0.996; with TTGAAACTGG, 0.977. For ACCCTGGTTT, the switch fluorescence ratio came to 1.06. Regarding ATTAAGACGG, the switch fluorescence ratio came to 1.02. CCGTGGGTTC: the switch fluorescence ratio amounted to 1.11.

Regarding ATAAGCGTCT, the switch fluorescence ratio was found to be 1.03. With TGGGCAGGTC the figure was 0.97. In the case of CCCGCGGGAA, the switch fluorescence ratio turned out to be 1.04. Next, CCCAGACATC: 1.08; TACTCCTTCT: 1.1; CGAATTCTAA: 0.987.

Take CATGGGTTTT: the switch fluorescence ratio came out at 1.03. Next, CCAGAAGTGT: 1.05; GGTTTCAAGC: 1.03. Next, CGGTGCCTCG: 1.01; AGCTTTAAGA: 0.973. Consider AATAGGGGCG, for which the switch fluorescence ratio is 0.977.

For the sequence AGTTGCATTG, the switch fluorescence ratio turned out to be 0.995. Next, TATCTTTTAG: 0.992. ATTCTTGGAT: the switch fluorescence ratio was 1.01.

Regarding TGTCGTTC, the switch fluorescence ratio stood at 1.02.

Take TAAGAGTTTT: the switch fluorescence ratio was 0.999.

In the case of ATACAATTTT, the switch fluorescence ratio was 1.02. Next, ACTTAGGTCG: 1; CCGGTCTTAT: 1.03. With ATAGAGAGTT the figure was 0.974; with TCTGGTAGAT, 1.04. With ATTTTAGCTA the figure was 1.05. For GTCGGCTGC, the switch fluorescence ratio was 1.18. With GGGCGTAATA the figure was 1.04.

As for GGTGGCGACG, the switch fluorescence ratio is 1.03.

With CGTGCTGGGC, the switch fluorescence ratio turned out to be 0.954.

Regarding TCCAATCTTC, the switch fluorescence ratio came to 1.01.

With AGCTAATCAC, the switch fluorescence ratio was 1.37.

As for GTGTCAGGTG, the switch fluorescence ratio was 2.65.

As for GTGGCGACTC, the switch fluorescence ratio came out at 0.98. With GTCTAACGGC the figure was 0.938; with GTTACGCCGT, 1.03; with AAATCCAAGG, 1.01. Next, CTCAATCAG: 1.01; CTCGTGGCAG: 1; CTGGACCGCG: 0.962. With AACCGACACG, the switch fluorescence ratio is 1.31.

As to CCTTGCCTAT, the switch fluorescence ratio came to 1.09.

For the sequence TACCGCTATA, the switch fluorescence ratio came out at 2.73.

Take CGGTTCACGC: the switch fluorescence ratio is 1.04.

For AATTCACATA, the switch fluorescence ratio amounted to 1.04. With GGTTGGACTT the figure was 1.02. With CAACAAAACA, the switch fluorescence ratio was 1.16. With AGGCGGCAG the figure was 1.01. Next, CCAGAAACCC: 1. With TATAACTCTT the figure was 1.05.
